Consider four molecules from paper PMC10080908.

For one experiment, the target named is T1, Flag-PIRH2 (human) (UniProt Q96PM5).
T1 sequence: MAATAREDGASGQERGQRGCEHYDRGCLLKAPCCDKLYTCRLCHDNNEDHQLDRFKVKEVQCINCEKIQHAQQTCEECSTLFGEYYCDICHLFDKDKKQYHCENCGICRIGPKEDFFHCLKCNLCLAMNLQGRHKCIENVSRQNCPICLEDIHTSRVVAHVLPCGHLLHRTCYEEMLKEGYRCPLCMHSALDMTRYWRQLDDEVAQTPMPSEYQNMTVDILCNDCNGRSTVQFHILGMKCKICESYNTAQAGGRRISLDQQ
Briefly: co-IP; Flag antibody and Protein G Sepharose, HEK-293 lysates in IP150 buffer, overnight at 4 °C; western blot with anti-Flag and anti-HA. (In western blotting, separated proteins are transferred to a membrane and probed.)

A further experiment addresses T2, GST-UBXN7-WT (human) (UniProt O94888).
T2 sequence: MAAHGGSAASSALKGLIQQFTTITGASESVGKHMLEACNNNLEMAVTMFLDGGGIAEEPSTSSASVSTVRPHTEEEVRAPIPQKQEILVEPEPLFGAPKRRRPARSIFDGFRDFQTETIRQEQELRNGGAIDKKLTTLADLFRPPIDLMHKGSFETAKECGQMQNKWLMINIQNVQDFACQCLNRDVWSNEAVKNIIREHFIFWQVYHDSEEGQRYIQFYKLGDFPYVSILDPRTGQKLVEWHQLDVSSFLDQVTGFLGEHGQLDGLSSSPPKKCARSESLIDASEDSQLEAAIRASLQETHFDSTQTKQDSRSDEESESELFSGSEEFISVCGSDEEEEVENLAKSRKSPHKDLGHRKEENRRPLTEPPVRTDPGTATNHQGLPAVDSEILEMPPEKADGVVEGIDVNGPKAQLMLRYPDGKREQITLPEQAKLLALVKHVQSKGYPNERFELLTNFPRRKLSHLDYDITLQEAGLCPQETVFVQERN
The experiment is described as follows: pull-down; 5 µg GST-UBXN7 constructs on Glutathione Sepharose, 1 h with HEK-293 cellular extracts (untransfected or transfected) in IP150 buffer; western blot; only the target purified.

Another experiment addresses T3, GST-UBXN7-UAS (human) (UniProt O94888).
T3 sequence: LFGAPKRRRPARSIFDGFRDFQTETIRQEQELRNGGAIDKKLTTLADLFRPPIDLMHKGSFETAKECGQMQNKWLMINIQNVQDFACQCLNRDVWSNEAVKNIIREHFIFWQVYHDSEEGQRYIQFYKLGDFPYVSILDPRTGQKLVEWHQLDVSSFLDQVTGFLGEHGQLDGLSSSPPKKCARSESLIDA
Described as above.

Substitutions are numbered along the chain they refer to. No constants are given. Whether binding was seen depends on the method and setting. In cells and extracts the contact can be indirect. Some binding calls cover weakened binding; strength is not graded here. Sequences can lack the tags named with a protein.

B1: HA-UBXN7-WT (protein, UniProt O94888 1-489)
chain: T2 sequence
In the case of B1, the binding entry with Flag-PIRH2 (human) is “no binding”.

B2: TOPORS (protein, UniProt Q9NS56 1-1045)
chain: MGSQPPLGSPLSREEGEAPPPAPASEGRRRSRRVRLRGSCRHRPSFLGCRELAASAPARPAPASSEIMASAAKEFKMDNFSPKAGTSKLQQTVPADASPDSKCPICLDRFDNVSYLDRCLHKFCFRCVQEWSKNKAECPLCKQPFDSIFHSVRAEDDFKEYVLRPSYNGSFVTPDRRFRYRTTLTRERNASVYSPSGPVNRRTTTPPDSGVLFEGLGISTRPRDVEIPQFMRQIAVRRPTTADERSLRKIQEQDIINFRRTLYRAGARVRNIEDGGRYRDISAEFFRRNPACLHRLVPWLKRELTVLFGAHGSLVNIVQHIIMSNVTRYDLESQAFVSDLRPFLLNRTEHFIHEFISFARSPFNMAAFDQHANYDCPAPSYEEGSHSDSSVITISPDEAETQELDINVATVSQAPWDDETPGPSYSSSEQVHVTMSSLLNTSDSSDEELVTGGATSQIQGVQTNDDLNNDSDDSSDNCVIVGFVKPLAERTPELVELSSDSEDLGSYEKMETVKTQEQEQSYSSGDSDVSRCSSPHSVLGKDEQINKGHCDSSTRIKSKKEEKRSTSLSSPRNLNSSVRGDRVYSPYNHRHRKRGRSRSSDSRSQSRSGHDQKNHRKHHGKKRMKSKRSRSRESSRPRGRRDKKRSRTRDSSWSRRSQTLSLSSESTSRSRSRSSDHGKRRSRSRNRDRYYLRNNYGSRYKWEYTYYSRNKDRDGYESSYRRRTLSRAHYSRQSSSPEFRVQSFSERTNARKKNNHSERKYYYYERHRSRSLSSNRSRTASTGTDRVRNEKPGGKRKYKTRHLEGTNEVAQPSREFASKAKDSHYQKSSSKLDGNYKNESDTFSDSRSSDRETKHKRRKRKTRSLSVEIVYEGKATDTTKHHKKKKKKHKKKHKKHHGDNASRSPVVITIDSDSDKDSEVKEDTECDNSGPQDPLQNEFLAPSLEPFETKDVVTIEAEFGVLDKECDIATLSNNLNNANKTVDNIPPLAASVEQTLDVREESTFVSDLENQPSNIVSLQTEPSRQLPSPRTSLMSVCLGRDCDMS
For B2, the binding entry with GST-UBXN7-WT (human) and in the experiment with GST-UBXN7-UAS (human) was “binds” each time.

B3: Flag-TOPORS-Nter (domain or fragment, UniProt Q9NS56 1-247)
chain: MGSQPPLGSPLSREEGEAPPPAPASEGRRRSRRVRLRGSCRHRPSFLGCRELAASAPARPAPASSEIMASAAKEFKMDNFSPKAGTSKLQQTVPADASPDSKCPICLDRFDNVSYLDRCLHKFCFRCVQEWSKNKAECPLCKQPFDSIFHSVRAEDDFKEYVLRPSYNGSFVTPDRRFRYRTTLTRERNASVYSPSGPVNRRTTTPPDSGVLFEGLGISTRPRDVEIPQFMRQIAVRRPTTADERSL
In the case of B3, the binding result in the experiment with GST-UBXN7-WT (human) and in the experiment with GST-UBXN7-UAS (human) was “binds” throughout.

B4: Flag-TOPORS-Nter-CA (domain or fragment, UniProt Q9NS56 1-247)
chain: B3 chain with C103A
For B4, in the experiment with GST-UBXN7-WT (human), the binding entry is “no binding”.
